{"source": "the supplement of paper PMC5499739", "note": "The full ranking holds about 16,000 sequences; the median of “Z-score” is about -0.37, and the highest 2% start at about 3.2. Some of the results follow."}
{"test_system": "RBM10 RRM1-ZnF (GST-tagged construct)", "test": "RNAcompete 7-mer binding Z-score; higher = stronger binding preference", "protocol": "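RNAcompete: 20 pmol GST-tagged RBM10 RNA-binding constructs were incubated with a designed RNA pool of about 241,000 sequences up to 41 nt (1.5 nmol) on glutathione beads for 30 min at 4 °C and washed. Bound RNAs were identified by microarray hybridisation. Each RNA 7-mer is scored by a one-sided Z-score of its enrichment, computed over probes that contain the 7-mer within longer pool sequences.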"}
{"sequence": "CGCCUGA", "RNAcompete 7-mer binding Z-score": -0.584}
{"sequence": "AUGUUAG", "RNAcompete 7-mer binding Z-score": 0.153}
{"sequence": "CAUGGGA", "RNAcompete 7-mer binding Z-score": 1.95}
{"sequence": "GUUGGCG", "RNAcompete 7-mer binding Z-score": 1.47}
{"sequence": "CGGUAAG", "RNAcompete 7-mer binding Z-score": 1.26}
{"sequence": "GUAAGUA", "RNAcompete 7-mer binding Z-score": 0.368}
{"sequence": "ACUCUCU", "RNAcompete 7-mer binding Z-score": -0.808}
{"sequence": "CGCCUUA", "RNAcompete 7-mer binding Z-score": -0.954}
{"sequence": "GUCUCCC", "RNAcompete 7-mer binding Z-score": -0.288}
{"sequence": "CUGAGCA", "RNAcompete 7-mer binding Z-score": -0.262}
{"sequence": "GUCGACA", "RNAcompete 7-mer binding Z-score": -0.236}
{"sequence": "AAUUGUG", "RNAcompete 7-mer binding Z-score": 0.137}
{"sequence": "UCCCAUA", "RNAcompete 7-mer binding Z-score": -0.863}
{"sequence": "AGCCAGA", "RNAcompete 7-mer binding Z-score": -0.422}
{"sequence": "UUGUCAC", "RNAcompete 7-mer binding Z-score": -0.597}
{"sequence": "AGUAUGA", "RNAcompete 7-mer binding Z-score": 0.215}
{"sequence": "CUAAUAG", "RNAcompete 7-mer binding Z-score": -0.402}
{"sequence": "UAAUGCC", "RNAcompete 7-mer binding Z-score": -0.766}
{"sequence": "AUUGCCC", "RNAcompete 7-mer binding Z-score": -0.802}
{"sequence": "UAAAGAA", "RNAcompete 7-mer binding Z-score": -0.0187}
{"sequence": "CCGUGUA", "RNAcompete 7-mer binding Z-score": -0.246}
{"sequence": "AUUUCUG", "RNAcompete 7-mer binding Z-score": -0.763}
{"sequence": "CAUCUUC", "RNAcompete 7-mer binding Z-score": -0.997}
{"sequence": "UCCCAAA", "RNAcompete 7-mer binding Z-score": -0.779}
{"sequence": "CCCGGUU", "RNAcompete 7-mer binding Z-score": -0.477}
{"sequence": "CACUGAC", "RNAcompete 7-mer binding Z-score": -0.474}
{"sequence": "AAUCUGG", "RNAcompete 7-mer binding Z-score": -0.227}
{"sequence": "ACCUCGA", "RNAcompete 7-mer binding Z-score": -0.62}
{"sequence": "GCUGAAC", "RNAcompete 7-mer binding Z-score": -0.223}
{"sequence": "CGUGGUG", "RNAcompete 7-mer binding Z-score": 1.52}
{"sequence": "GUUGUGU", "RNAcompete 7-mer binding Z-score": 0.222}
{"sequence": "GUCUGGU", "RNAcompete 7-mer binding Z-score": 0.111}
{"sequence": "GAGCACC", "RNAcompete 7-mer binding Z-score": -0.175}
{"sequence": "UCAGAAU", "RNAcompete 7-mer binding Z-score": -0.487}
{"sequence": "AGACCGG", "RNAcompete 7-mer binding Z-score": -0.321}
{"sequence": "CUGUAGC", "RNAcompete 7-mer binding Z-score": -0.535}
{"sequence": "AGACUAU", "RNAcompete 7-mer binding Z-score": -0.72}
{"sequence": "ACUGCCG", "RNAcompete 7-mer binding Z-score": -0.574}
{"sequence": "UCCCCCC", "RNAcompete 7-mer binding Z-score": -0.188}
{"sequence": "GACCUCG", "RNAcompete 7-mer binding Z-score": -0.691}
{"sequence": "GAGCUCG", "RNAcompete 7-mer binding Z-score": -0.266}
{"sequence": "CAUUAGC", "RNAcompete 7-mer binding Z-score": -0.646}
{"sequence": "GCUUUGA", "RNAcompete 7-mer binding Z-score": -0.698}
{"sequence": "UUACAGU", "RNAcompete 7-mer binding Z-score": -0.223}
{"sequence": "ACAUAUC", "RNAcompete 7-mer binding Z-score": -0.636}
{"sequence": "ACCACAG", "RNAcompete 7-mer binding Z-score": -0.314}
{"sequence": "GGCAUUU", "RNAcompete 7-mer binding Z-score": -0.474}
{"sequence": "AGGUCUC", "RNAcompete 7-mer binding Z-score": -0.5}
{"sequence": "GGGGAAG", "RNAcompete 7-mer binding Z-score": 4.31}
{"sequence": "UUGUAUU", "RNAcompete 7-mer binding Z-score": -0.61}
{"sequence": "GGUAUUA", "RNAcompete 7-mer binding Z-score": 1.25}
{"sequence": "ACUUCGU", "RNAcompete 7-mer binding Z-score": -0.73}
{"sequence": "UGCCUCG", "RNAcompete 7-mer binding Z-score": -0.428}
{"sequence": "GAGCCGA", "RNAcompete 7-mer binding Z-score": -0.503}
{"sequence": "GAUUAAC", "RNAcompete 7-mer binding Z-score": -0.201}
{"sequence": "ACCUUGU", "RNAcompete 7-mer binding Z-score": -0.798}
{"sequence": "CCUUCUU", "RNAcompete 7-mer binding Z-score": -0.72}
{"sequence": "AGAACAU", "RNAcompete 7-mer binding Z-score": -0.402}
{"sequence": "GCAUUUG", "RNAcompete 7-mer binding Z-score": -0.477}
{"sequence": "GAUGCUC", "RNAcompete 7-mer binding Z-score": -0.399}
{"sequence": "CGCGGCG", "RNAcompete 7-mer binding Z-score": 1.25}
{"sequence": "CGUAAGU", "RNAcompete 7-mer binding Z-score": -0.392}
{"sequence": "GCACGGU", "RNAcompete 7-mer binding Z-score": 0.313}
{"sequence": "AGAAAGA", "RNAcompete 7-mer binding Z-score": 0.495}
{"sequence": "UCGCUGU", "RNAcompete 7-mer binding Z-score": -0.571}
{"sequence": "UAGCCUU", "RNAcompete 7-mer binding Z-score": -0.746}
{"sequence": "GCGUGGG", "RNAcompete 7-mer binding Z-score": 3.53}
{"sequence": "UUGGUGC", "RNAcompete 7-mer binding Z-score": 1.53}
{"sequence": "CAGGGUA", "RNAcompete 7-mer binding Z-score": 2.99}
{"sequence": "GGACAUG", "RNAcompete 7-mer binding Z-score": 1.76}
{"sequence": "GUCUAAU", "RNAcompete 7-mer binding Z-score": -0.422}
{"sequence": "GUACGCA", "RNAcompete 7-mer binding Z-score": -0.266}
{"sequence": "CAGACGC", "RNAcompete 7-mer binding Z-score": -0.49}
{"sequence": "UGUCUUA", "RNAcompete 7-mer binding Z-score": -0.688}
{"sequence": "AUCCCUG", "RNAcompete 7-mer binding Z-score": -0.779}
{"sequence": "AGCGUAA", "RNAcompete 7-mer binding Z-score": 0.144}
{"sequence": "CCCCCAA", "RNAcompete 7-mer binding Z-score": -0.415}
{"sequence": "ACUUCCG", "RNAcompete 7-mer binding Z-score": -0.795}
{"sequence": "GACUUCU", "RNAcompete 7-mer binding Z-score": -0.938}
{"sequence": "GGUGUCU", "RNAcompete 7-mer binding Z-score": 0.66}
{"sequence": "ACUCAAG", "RNAcompete 7-mer binding Z-score": -0.249}
{"sequence": "CUAGACC", "RNAcompete 7-mer binding Z-score": -0.655}
{"sequence": "GUCCAUU", "RNAcompete 7-mer binding Z-score": -0.818}
{"sequence": "CUCCCCC", "RNAcompete 7-mer binding Z-score": -0.295}
{"sequence": "CCGUAAG", "RNAcompete 7-mer binding Z-score": -0.694}
{"sequence": "UACUCCA", "RNAcompete 7-mer binding Z-score": -0.776}
{"sequence": "CUACGGU", "RNAcompete 7-mer binding Z-score": -0.262}
{"sequence": "ACACAGC", "RNAcompete 7-mer binding Z-score": -0.412}
{"sequence": "ACAUCAC", "RNAcompete 7-mer binding Z-score": -0.617}
{"sequence": "CCUGCGC", "RNAcompete 7-mer binding Z-score": -0.568}
{"sequence": "CAUGAGU", "RNAcompete 7-mer binding Z-score": -0.0414}
{"sequence": "AUCUCCA", "RNAcompete 7-mer binding Z-score": -0.828}
{"sequence": "AGUUCAC", "RNAcompete 7-mer binding Z-score": -0.668}
{"sequence": "AUGACGA", "RNAcompete 7-mer binding Z-score": 0.209}
{"sequence": "CUGUUCC", "RNAcompete 7-mer binding Z-score": -0.841}
{"sequence": "GAGCGUC", "RNAcompete 7-mer binding Z-score": -0.311}
{"sequence": "UGGGUGA", "RNAcompete 7-mer binding Z-score": 3.38}
{"sequence": "UCUAAUA", "RNAcompete 7-mer binding Z-score": -0.561}
{"sequence": "GGUCCUC", "RNAcompete 7-mer binding Z-score": -0.243}
{"sequence": "AAGGGCC", "RNAcompete 7-mer binding Z-score": 1.01}
{"sequence": "AAGAGCG", "RNAcompete 7-mer binding Z-score": 0.836}
{"sequence": "CCAACGC", "RNAcompete 7-mer binding Z-score": -0.535}
{"sequence": "GGUAAGU", "RNAcompete 7-mer binding Z-score": 1.61}
{"sequence": "GUGUCAU", "RNAcompete 7-mer binding Z-score": -0.259}
{"sequence": "CGGGCCU", "RNAcompete 7-mer binding Z-score": -0.24}
{"sequence": "GGUGGUC", "RNAcompete 7-mer binding Z-score": 2.06}
{"sequence": "GCUUUGU", "RNAcompete 7-mer binding Z-score": -0.522}
{"sequence": "AGAUUGU", "RNAcompete 7-mer binding Z-score": -0.0739}
{"sequence": "CUCGCUU", "RNAcompete 7-mer binding Z-score": -0.704}
{"sequence": "AGAUUGC", "RNAcompete 7-mer binding Z-score": -0.444}
{"sequence": "CUAUGUC", "RNAcompete 7-mer binding Z-score": -0.795}
{"sequence": "AAUAUGU", "RNAcompete 7-mer binding Z-score": -0.223}
{"sequence": "CACAGAA", "RNAcompete 7-mer binding Z-score": -0.36}
{"sequence": "GAGAUGG", "RNAcompete 7-mer binding Z-score": 3.54}
{"sequence": "CCUAUGU", "RNAcompete 7-mer binding Z-score": -0.759}
{"sequence": "CUUAAGA", "RNAcompete 7-mer binding Z-score": -0.626}
{"sequence": "UAUGUGA", "RNAcompete 7-mer binding Z-score": 0.118}
